Assay results from the supplement of paper PMC12217912.
The other results are listed elsewhere or left out. The full chains were built here from the parent and the listed change. Values near 0.05 are background.

B1: TEV protease; numbered along this chain (parent)
chain: MGESLFKGPRDYNPISSSICHLTNESDGHTTSLYGIGFGPFIITNKHLFRRNNGTLVVQSLHGVFKVKDTTTLQQHLVDGRDMIIIRMPKDFPPFPQKLKFREPQREERICLVTTNFQTKSMSSMVSDTSCTFPSGDGIFWKHWIQTKDGQCGSPLVSTRDGFIVGIHSASNFTNTNNYFTSVPKNFMELLTNQEAQQWVSGWRLNADSVLWGGHKVFMVKPEEPFQPVKEATQL

Variants of: B1
Assay: raw area under fraction-flipped curve 0-4 h after induction (AUC4h, not background-subtracted), DNA-recorder readout of cleavage of the substrate (dimensionless); higher = more cleavage of the substrate by the protease variant
Settings: temperature: 34 °C; time window: 0-4 h after rhamnose induction
Experimental: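 In vivo DNA recorder in E. coli TOP10(DE3) ΔrhaA at 34 °C. Each TEVp single-site mutant (parent TEVp 0) is paired with a single-site variant of the 7-mer TEVs (canonical ENLYFQ|S). The substrate sits between flexible linkers in a Bxb1-sfGFP-TEVs-SsrA fusion, so cleavage stabilises Bxb1 and speeds flipping of a recombination array, read by NGS. The value is the raw area under the fraction-flipped curve over 0-4 h after rhamnose induction (AUC4h), with ≥20 reads per time point. It is not background-subtracted; inactive controls average about 0.047.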
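Note: Bxb1 expression induced with 0.2% (w/v) L-rhamnose at OD600 near 0.5, cultures sampled hourly, flipped fraction per protease–substrate barcode pair counted by paired-end Illumina sequencing.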

Row | Variant | area with substrate DNLYFQS | area with substrate GNLYFQS | area with substrate HNLYFQS | area with substrate MNLYFQS | area with substrate PNLYFQS | area with substrate TNLYFQS | area with substrate WNLYFQS | area with substrate KNLYFQS | area with substrate VNLYFQS | area with substrate INLYFQS
1 | MGESLFKGPRDYNPISSSICHLTNESDGHTTSLYGIGFGPFIITNKHLFRRNNGTLVVQSLHGVFKVKDTTTLQQHLVDGRDMIIIRMPKDFPPFPQKLKFREPQREERICLVTTNFQTKSMSSMVSDTSCTFPSGDGIFWKHWIQTKDGQCGSPLVSTRDGFIVGIHSLSNFTNTNNYFTSVPKNFMELLTNQEAQQWVSGWRLNADSVLWGGHKVFMVKPEEPFQPVKEATQL [A170L] | 0.0622 | 0.0748 | 0.0465 | 0.0577 | 0.0482 | 0.0576 | 0.0507 |  |  | 
2 | MGESLFKGPRDYNPISSSICHLTNESDGHTTSLYGIGFGPFIITNKHLFRRNNGTLVVQSLHGVFKVKDTTTLQQHLVDGRDMIIIRMPKDFPPFPQKLKFREPQREERICLVTTNFQTKSMSSMVSDTSCTFPSGDGIFWKHWIQTKDGQCGSPLVSTRDGFIVGIHSPSNFTNTNNYFTSVPKNFMELLTNQEAQQWVSGWRLNADSVLWGGHKVFMVKPEEPFQPVKEATQL [A170P] | 0.0451 |  |  |  |  |  | 0.0806 | 0.071 | 0.0426 | 
3 | MGESLFKGPRDYNPISSSICHLTNESDGHTTSLYGIGFGPFIITNKHLFRRNNGTLVVQSLHGVFKVKDTTTLQQHLVDGRDMIIIRMPKDFPPFPQKLKFREPQREERICLVTTNFQTKSMSSMVSDTSCTFPSGDGIFWKHWIQTKDGQCGSPLVSTRDGFIVGIHSARNFTNTNNYFTSVPKNFMELLTNQEAQQWVSGWRLNADSVLWGGHKVFMVKPEEPFQPVKEATQL [S171R] | 0.0684 |  | 0.119 | 0.102 | 0.0507 | 0.0799 |  |  |  | 0.0494
4 | MGESLFKGPRDYNPISSSICHLTNESDGHTTSLYGIGFGPFIITNKHLFRRNNGTLVVQSLHGVFKVKDTTTLQQHLVDGRDMIIIRMPKDFPPFPQKLKFREPQREERICLVTTNFQTKSMSSMVSDTSCTFPSGDGIFWKHWIQTKDGQCGSPLVSTRDGFIVGIHSAWNFTNTNNYFTSVPKNFMELLTNQEAQQWVSGWRLNADSVLWGGHKVFMVKPEEPFQPVKEATQL [S171W] | 0.0551 |  | 0.0633 |  |  |  |  |  |  | 
5 | MGESLFKGPRDYNPISSSICHLTNESDGHTTSLYGIGFGPFIITNKHLFRRNNGTLVVQSLHGVFKVKDTTTLQQHLVDGRDMIIIRMPKDFPPFPQKLKFREPQREERICLVTTNFQTKSMSSMVSDTSCTFPSGDGIFWKHWIQTKDGQCGSPLVSTRDGFIVGIHSASDFTNTNNYFTSVPKNFMELLTNQEAQQWVSGWRLNADSVLWGGHKVFMVKPEEPFQPVKEATQL [N172D] | 0.0744 | 0.0515 | 0.0761 | 0.0781 | 0.0849 | 0.0733 | 0.0734 |  |  | 
6 | MGESLFKGPRDYNPISSSICHLTNESDGHTTSLYGIGFGPFIITNKHLFRRNNGTLVVQSLHGVFKVKDTTTLQQHLVDGRDMIIIRMPKDFPPFPQKLKFREPQREERICLVTTNFQTKSMSSMVSDTSCTFPSGDGIFWKHWIQTKDGQCGSPLVSTRDGFIVGIHSASNKTNTNNYFTSVPKNFMELLTNQEAQQWVSGWRLNADSVLWGGHKVFMVKPEEPFQPVKEATQL [F173K] | 0.0623 |  | 0.0655 |  |  |  |  | 0.049 |  | 
7 | MGESLFKGPRDYNPISSSICHLTNESDGHTTSLYGIGFGPFIITNKHLFRRNNGTLVVQSLHGVFKVKDTTTLQQHLVDGRDMIIIRMPKDFPPFPQKLKFREPQREERICLVTTNFQTKSMSSMVSDTSCTFPSGDGIFWKHWIQTKDGQCGSPLVSTRDGFIVGIHSASNPTNTNNYFTSVPKNFMELLTNQEAQQWVSGWRLNADSVLWGGHKVFMVKPEEPFQPVKEATQL [F173P] | 0.0649 |  | 0.0562 | 0.0637 | 0.0518 |  | 0.0558 |  |  | 0.0472
8 | MGESLFKGPRDYNPISSSICHLTNESDGHTTSLYGIGFGPFIITNKHLFRRNNGTLVVQSLHGVFKVKDTTTLQQHLVDGRDMIIIRMPKDFPPFPQKLKFREPQREERICLVTTNFQTKSMSSMVSDTSCTFPSGDGIFWKHWIQTKDGQCGSPLVSTRDGFIVGIHSASNFMNTNNYFTSVPKNFMELLTNQEAQQWVSGWRLNADSVLWGGHKVFMVKPEEPFQPVKEATQL [T174M] | 0.0587 | 0.106 | 0.0654 |  | 0.0754 |  |  |  |  | 0.0462
9 | MGESLFKGPRDYNPISSSICHLTNESDGHTTSLYGIGFGPFIITNKHLFRRNNGTLVVQSLHGVFKVKDTTTLQQHLVDGRDMIIIRMPKDFPPFPQKLKFREPQREERICLVTTNFQTKSMSSMVSDTSCTFPSGDGIFWKHWIQTKDGQCGSPLVSTRDGFIVGIHSASNFTNTRNYFTSVPKNFMELLTNQEAQQWVSGWRLNADSVLWGGHKVFMVKPEEPFQPVKEATQL [N177R] | 0.109 | 0.0764 | 0.0571 | 0.0693 | 0.0841 |  | 0.0595 | 0.081 |  | 
10 | MGESLFKGPRDYNPISSSICHLTNESDGHTTSLYGIGFGPFIITNKHLFRRNNGTLVVQSLHGVFKVKDTTTLQQHLVDGRDMIIIRMPKDFPPFPQKLKFREPQREERICLVTTNFQTKSMSSMVSDTSCTFPSGDGIFWKHWIQTKDGQCGSPLVSTRDGFIVGIHSASNFTNTWNYFTSVPKNFMELLTNQEAQQWVSGWRLNADSVLWGGHKVFMVKPEEPFQPVKEATQL [N177W] | 0.0654 |  |  |  | 0.0598 | 0.0534 | 0.0517 | 0.0712 |  | 
11 | MGESLFKGPRDYNPISSSICHLTNESDGHTTSLYGIGFGPFIITNKHLFRRNNGTLVVQSLHGVFKVKDTTTLQQHLVDGRDMIIIRMPKDFPPFPQKLKFREPQREERICLVTTNFQTKSMSSMVSDTSCTFPSGDGIFWKHWIQTKDGQCGSPLVSTRDGFIVGIHSASNFTNTNPYFTSVPKNFMELLTNQEAQQWVSGWRLNADSVLWGGHKVFMVKPEEPFQPVKEATQL [N178P] | 0.0653 | 0.0857 | 0.0713 |  | 0.0562 |  |  |  |  | 
12 | MGESLFKGPRDYNPISSSICHLTNESDGHTTSLYGIGFGPFIITNKHLFRRNNGTLVVQSLHGVFKVKDTTTLQQHLVDGRDMIIIRMPKDFPPFPQKLKFREPQREERICLVTTNFQTKSMSSMVSDTSCTFPSGDGIFWKHWIQTKDGQCGSPLVSTRDGFIVGIHSASNFTNTNNYYTSVPKNFMELLTNQEAQQWVSGWRLNADSVLWGGHKVFMVKPEEPFQPVKEATQL [F180Y] | 0.105 | 0.0717 | 0.0635 | 0.0611 | 0.0642 | 0.0682 | 0.0757 |  | 0.063 | 

Same assay, conditions: temperature: 34 °C; time window: 0-4 h after rhamnose induction

Row | Variant | area with substrate LNLYFQS | area with substrate QNLYFQS | area with substrate YNLYFQS | area with substrate RNLYFQS | area with substrate SNLYFQS | area with substrate FNLYFQS | area with substrate NNLYFQS
13 | MGESLFKGPRDYNPISSSICHLTNESDGHTTSLYGIGFGPFIITNKHLFRRNNGTLVVQSLHGVFKVKDTTTLQQHLVDGRDMIIIRMPKDFPPFPQKLKFREPQREERICLVTTNFQTKSMSSMVSDTSCTFPSGDGIFWKHWIQTKDGQCGSPLVSTRDGFIVGIHSARNFTNTNNYFTSVPKNFMELLTNQEAQQWVSGWRLNADSVLWGGHKVFMVKPEEPFQPVKEATQL [S171R] | 0.0655 | 0.0622 |  |  |  |  | 
14 | MGESLFKGPRDYNPISSSICHLTNESDGHTTSLYGIGFGPFIITNKHLFRRNNGTLVVQSLHGVFKVKDTTTLQQHLVDGRDMIIIRMPKDFPPFPQKLKFREPQREERICLVTTNFQTKSMSSMVSDTSCTFPSGDGIFWKHWIQTKDGQCGSPLVSTRDGFIVGIHSAWNFTNTNNYFTSVPKNFMELLTNQEAQQWVSGWRLNADSVLWGGHKVFMVKPEEPFQPVKEATQL [S171W] |  |  | 0.0602 |  |  |  | 
15 | MGESLFKGPRDYNPISSSICHLTNESDGHTTSLYGIGFGPFIITNKHLFRRNNGTLVVQSLHGVFKVKDTTTLQQHLVDGRDMIIIRMPKDFPPFPQKLKFREPQREERICLVTTNFQTKSMSSMVSDTSCTFPSGDGIFWKHWIQTKDGQCGSPLVSTRDGFIVGIHSASDFTNTNNYFTSVPKNFMELLTNQEAQQWVSGWRLNADSVLWGGHKVFMVKPEEPFQPVKEATQL [N172D] |  |  | 0.0624 | 0.078 |  |  | 
16 | MGESLFKGPRDYNPISSSICHLTNESDGHTTSLYGIGFGPFIITNKHLFRRNNGTLVVQSLHGVFKVKDTTTLQQHLVDGRDMIIIRMPKDFPPFPQKLKFREPQREERICLVTTNFQTKSMSSMVSDTSCTFPSGDGIFWKHWIQTKDGQCGSPLVSTRDGFIVGIHSASNKTNTNNYFTSVPKNFMELLTNQEAQQWVSGWRLNADSVLWGGHKVFMVKPEEPFQPVKEATQL [F173K] |  |  |  |  | 0.0514 |  | 
17 | MGESLFKGPRDYNPISSSICHLTNESDGHTTSLYGIGFGPFIITNKHLFRRNNGTLVVQSLHGVFKVKDTTTLQQHLVDGRDMIIIRMPKDFPPFPQKLKFREPQREERICLVTTNFQTKSMSSMVSDTSCTFPSGDGIFWKHWIQTKDGQCGSPLVSTRDGFIVGIHSASNPTNTNNYFTSVPKNFMELLTNQEAQQWVSGWRLNADSVLWGGHKVFMVKPEEPFQPVKEATQL [F173P] |  | 0.0639 |  |  | 0.0429 |  | 
18 | MGESLFKGPRDYNPISSSICHLTNESDGHTTSLYGIGFGPFIITNKHLFRRNNGTLVVQSLHGVFKVKDTTTLQQHLVDGRDMIIIRMPKDFPPFPQKLKFREPQREERICLVTTNFQTKSMSSMVSDTSCTFPSGDGIFWKHWIQTKDGQCGSPLVSTRDGFIVGIHSASNFTNTRNYFTSVPKNFMELLTNQEAQQWVSGWRLNADSVLWGGHKVFMVKPEEPFQPVKEATQL [N177R] | 0.0553 |  |  | 0.0548 | 0.0815 |  | 
19 | MGESLFKGPRDYNPISSSICHLTNESDGHTTSLYGIGFGPFIITNKHLFRRNNGTLVVQSLHGVFKVKDTTTLQQHLVDGRDMIIIRMPKDFPPFPQKLKFREPQREERICLVTTNFQTKSMSSMVSDTSCTFPSGDGIFWKHWIQTKDGQCGSPLVSTRDGFIVGIHSASNFTNTWNYFTSVPKNFMELLTNQEAQQWVSGWRLNADSVLWGGHKVFMVKPEEPFQPVKEATQL [N177W] |  |  |  |  | 0.0488 | 0.0612 | 0.0565
20 | MGESLFKGPRDYNPISSSICHLTNESDGHTTSLYGIGFGPFIITNKHLFRRNNGTLVVQSLHGVFKVKDTTTLQQHLVDGRDMIIIRMPKDFPPFPQKLKFREPQREERICLVTTNFQTKSMSSMVSDTSCTFPSGDGIFWKHWIQTKDGQCGSPLVSTRDGFIVGIHSASNFTNTNPYFTSVPKNFMELLTNQEAQQWVSGWRLNADSVLWGGHKVFMVKPEEPFQPVKEATQL [N178P] | 0.0752 |  |  |  |  |  | 
21 | MGESLFKGPRDYNPISSSICHLTNESDGHTTSLYGIGFGPFIITNKHLFRRNNGTLVVQSLHGVFKVKDTTTLQQHLVDGRDMIIIRMPKDFPPFPQKLKFREPQREERICLVTTNFQTKSMSSMVSDTSCTFPSGDGIFWKHWIQTKDGQCGSPLVSTRDGFIVGIHSASNFTNTNNYYTSVPKNFMELLTNQEAQQWVSGWRLNADSVLWGGHKVFMVKPEEPFQPVKEATQL [F180Y] | 0.0591 |  |  |  |  | 0.054 | 0.0727
